Results published in the supplement of paper PMC3334620.
Over roughly 33,000 sequences, “E-score (-0.5 to 0.5)” has its median near -0.01; the highest 2% begin near 0.26. This is one part of the list.

target: Ste12 (UniProt P13574); test: PBM E-score (8-mer binding enrichment) (E-score (-0.5 to 0.5)); higher = stronger / more preferred TF binding; most listed sequences are background and not binding sites; conditions: protein concentration: 200 nM; construct: GST-DNA-binding domain
Method in brief: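 Universal all-10-mer Agilent arrays, double-stranded by primer extension on fresh or once-stripped slides, were probed with about 100-200 nM GST-tagged yeast transcription factors made by PURExpress. Fluorescent anti-GST detected bound protein, and masliner normalised the scans. E-scores from the Universal PBM Analysis Suite were given to each ungapped eight-base word pooled with its reverse complement.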

Sequence | PBM E-score
GACAACGC | 0.0429
CCGTACAA | 0.0532
CGAGCCAG | -0.0693
ACACTGGT | -0.0637
ATAACGTG | -0.147
AATCCACC | -0.077
ACTGTACG | -0.215
CAAGCCAG | -0.0827
AGCCTATC | -0.0224
CAAATGGA | -0.153
ATTTTGAG | 0.174
CGGTCACC | -0.188
AGCGGGCA | -0.114
CAGTTGCG | -0.107
AAGCTAAA | 0.0582
ACAGTTTG | 0.016
AACCGCCT | -0.0784
ACGATTAT | 0.0501
AGCAGGTG | -0.0318
AACAGCTC | -0.0228
GCGCCCCA | 0.056
TAAGTAAA | 0.0776
AGGAAATG | 0.0773
AAAGTTAG | 0.157
ATGTCGCC | 0.00748

Sequence | PBM E-score
CATACCAG | -0.0507
GCTGGTTA | 0.0452
ATATGAAG | 0.0351
CACTAGCC | -0.0332
ATGTGCAA | 0.125
CACAAAAA | 0.23
CTACCGGC | -0.196
ACCTTGCG | -0.041
AGAGTCCA | -0.0783
ATTCGGTG | 0.025
AAGCTACT | -0.138
GACTGACA | 0.0146
AAATCCGT | 0.0418
GACTCTCC | -0.109
CAAAGAAA | 0.214
TTCCGGAA | 0.12
CTGCAAGA | 0.012
ATAACCAT | -0.00569
ACCCCATG | 0.178
GACAGAAC | 0.133
ATTATCGG | -0.0839
GGGAGTCA | -0.0761
ACCCCGGG | -0.135
GCTCCATA | 0.0209
CGTGCTCC | -0.026

Sequence | PBM E-score
AGAACTCG | -0.0556
CAGGTTTC | 0.361
CCGGGTTA | -8e-05
CGTTCTGA | -0.0774
GCAGTTCA | -0.0553
AAGACCGA | 0.165
AGCGCTAT | 0.0744
ATTCCTAC | -0.0434
AAGTCAAT | 0.0436
ATTATCCG | 0.294
GTGTGCCA | -0.182
CTGTGAGA | -0.0675
AAGCGCTC | -0.0384
CGTTACTA | -0.0651
CCGGAGGC | -0.25
CTCTCACA | 0.0112
AGTCACGA | -0.0773
CGGCAATC | 0.0113
CGCATGGC | -0.0645
GAAAGACA | 0.0466
AGAGCAAC | -0.0539
AGTATTTG | 0.0776
GATGACGC | -0.0788
AACGTTAT | 0.122
ATTGCGGG | 0.0749

Sequence | PBM E-score
CCGGATCG | -0.0727
ACGTAACT | -0.0636
GGTCGGGA | 0.0802
CTCATTCC | 0.0499
ACATACCA | -0.0644
TAATGGTA | -0.00079
CCTCCCAC | 0.0349
GTCTAGAC | -0.267
TAATTGCA | 0.134
ATACCGCC | 0.122
GTCTTGTA | -0.125
ATCTGGCC | -0.067
CGCTATTC | 0.0426
AATGCCTC | 0.125
CAGCCGTC | -0.0959
ATTGTATG | 0.0268
ACGAGTTA | 0.1
CCCCAAGA | -0.0289
GCAGCTTA | -0.0835
AAATTGTA | 0.048
TAGTAACA | 0.0567
CTCCATGA | 0.124
AAGCGTAA | -0.0822
GAGACTTA | 0.00211
AGCCATAA | 0.0455

Sequence | PBM E-score
AGACATCC | -0.0397
CATTTTAC | 0.254
ATTCATTC | 0.239
AGGCCCCT | -0.149
TACTGCGA | -0.117
CACGGACA | -0.217
TCAAACGA | 0.157
GACATATA | 0.11
AGCACGAA | 0.0766
CCACCCAC | 0.154
AGTGAGGC | -0.131
GCCTGCTA | -0.173
AGGTTCTC | 0.0357
CTTCGGCA | 0.0217
ACCAAATC | -0.0444
AGATTACC | 0.109
CTTATGCA | -0.00016
GTAAGTAC | -0.0734
CAGCCCGA | -0.0607
ACGCAGCG | -0.0825
AGGTAGTA | 0.00015
GAAGACCA | -0.0927
ATAAGAGC | 0.00898
GAGTAGAA | -0.0928
CGGAAGGC | -0.181

Sequence | PBM E-score
ACGCGGCC | -0.161
ACTCTTCC | -0.0925
AACACTGG | -0.00819
CGATGGAA | -0.0331
ACAGCCAG | -0.178
ATTCATCA | 0.106
TCTAAACA | 0.121
CCTGCTAA | -0.2
GCGCACCA | 0.00849
AGCCGTAA | -0.0314
GAGCAGCC | -0.212
GTATGTCA | 0.235
AAAATTGT | 0.225
CTATGCAG | -0.201
ACAAGATC | -0.12
AAGAGGAT | -0.117
CACCTAGA | -0.163
TACTCGGA | 0.126
AACCTACA | 0.148
GAGGGCAA | 0.161
TACTGGCA | -0.0209
CTTACGAA | 0.0369
AGGAACAC | -0.084
ATGCGACG | 0.0983
AGTCATTC | -0.137

Sequence | PBM E-score
GGACGTCC | -0.0929
CCCCAACC | 0.0625
CTACATCC | -0.0459
CATAAGTC | -0.0556
CAGTACAC | -0.0767
AATAGTGC | 0.0864
CCCGGGAG | -0.0679
GTACTGCA | -0.174
ACTGCTCT | 0.0296
GTGTCAGA | 0.147
GACCAATC | -0.0277
AGGGGGTC | -0.169
ATGGCCTA | -0.177
ATTAACGG | 0.088
GTTGAGAA | 0.0623
GACGTGCC | -0.244
TCCCTGCA | 0.0798
CGCATGCA | -0.00954
AGGCCGTA | -0.0213
ACTAAGAG | -0.0255
AGTAATAA | 0.116
AGCGGTGA | 0.0245
GATTTCGA | 0.184
CAGAACAG | -0.091
AGAAAGAC | 0.0769

Sequence | PBM E-score
GAAATGCC | 0.127
AAGTGATG | 0.012
AGTGTTGA | 0.0425
AGGGGCAA | 0.0609
AGTCTAGG | -0.148
CATTGGGG | -0.165
CAGGGTTC | -0.0459
ATCCATTC | -0.048
AAAGCGAA | 0.133
AATACCCA | -0.0006
AAACAAGG | 0.0389
GGGACCGA | -0.136
GGTATTAC | 0.0767
CGTACTGC | -0.128
AATTGCAC | 0.105
AGTTCCAA | 0.151
GTAAGACA | 0.0839
TATTTAAA | 0.379
CAGGTCGA | 0.0748
ACGAAACC | 0.242
GGATTCGA | 0.0144
AAGTTGAG | 0.14
AAGACTGT | -0.273
ACTTCTCG | 0.0517
AACTCGTC | 0.0375

Sequence | PBM E-score
CACTCAGC | -0.0423
CCATTTAA | 0.0808
ATCCTTGG | -0.02
AGAAAAAA | 0.19
AATTCGAG | -0.0401
GCACCGAA | 0.0411
CCGCGTTC | 0.0187
GACGATGA | 0.0487
GTCCTGGA | -0.347
AAAATCGG | 0.00563
ACCTGTAT | -0.023
GCCCGCGA | 0.0301
CAGGGGGC | -0.114
AGCGGTAG | -0.0432
CAGGACGC | -0.105
TGTGTCAA | 0.203
CAAATATA | 0.0746
CTTCTCCA | -0.0874
CATATCGG | -0.00469
